Test results as given in paper PMC3884069 (Cellular and molecular life sciences : CMLS, 2012).

Molecular target: the molecule itself
Experiment: non-reducing SDS-PAGE and western blot

B1: HLA-G5 (soluble HLA-G isoform, α1–α2–α3 domains) (natural protein)
MHC heavy: not shown
stoichiometry N: 2
